Measured values: the supplement of paper PMC10126150
Values marked as one replicate rest on one cluster of the flow cell; about a third of the high ones do not repeat.

System: ATP
Test: switch fluorescence ratio, 500 uM ATP over buffer (Cy3 cluster intensity, sum of 5 cycles each) (fold (ratio)); higher = stronger signal-on switching upon ATP binding; sequences stand for … in TCGTCGGCAGCGTCAGATGTGTATAAGAGACAGTTTTTTTTTTTTTTTTTTTTTTTTT…TC
Conditions: aptamer strand: ATP DNA aptamer (quencher-CACCTGGGGGAGTATTGCGGAGGAAGG + anchor), 100 nM annealed; ATP concentration: 500 uM; one replicate
In short: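 Between each of five buffer/ATP cycles, the flow-cell was stripped with NaOH and re-annealed. Each cycle imaged Cy3-labelled switching-strand clusters, annealed to 100 nM quencher-labelled ATP aptamer on a modified Illumina MiSeq flow-cell, first in selection buffer and then after 15 min with 500 uM ATP at 22 °C. The fluorescence ratio is summed target-cycle over summed buffer-cycle Cy3 intensity per cluster, averaged per switch-domain sequence, with clusters outside 100-1000 RFU excluded.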
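Note: ATP exposure 15 min at 22 °C before imaging.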

Sequence	switch fluorescence ratio
TACATCTTAT	0.974
TTGCATACTA	1.13
TTGAGTCGGG	0.939
ATCCTTCAG	1.05
ATTCGTATGC	0.97
GGCTAATGCA	0.949
GCCTGCAAGG	1.46
GCATGTCTGA	1.03
CTTTCGTT	0.988
CAGTAGAGGA	1.06
CGCGCGCCTT	1.01
GAAATAAGCG	0.993
CCTTAACCTT	1.71
CTTAGCGGGT	1.02
TGACTCACAC	1.52
AACTGTACA	1.49
ATCCCCGTCG	1
CGTAGCGTAC	5
AGGGATAAC	0.969
GTCGACTACA	0.994
GGCAGATGTG	1.03
CAGTCTAACT	0.992
AGTGCGACGT	1.02
AACTCATTGG	0.985
TTCCAAAGCT	1.45
GGATTGAGTG	1

Sequence	switch fluorescence ratio
GTGTAAGGGC	1.02
ACAACTTATT	1
CTAACGTAGC	1.11
TTGGAACCCA	1.07
CGTAGGGCTC	1.04
ATATGGAGGG	1.03
GCGTATTTTC	1.02
TCAAAAAATC	1.02
TCGTAACGGA	0.988
CAAATGTGT	0.965
GTATGAATTT	0.99
GGACTTTACC	1.23
TCTCGTACTC	1.15
ACCAACAAAG	1.06
TGACCTCTAG	1.01
GTCGCATGA	0.994
AATACTCACA	1.44
AGTGACTGTT	0.954
ATAAACGCG	0.987
CGGAAGAATG	1.01
TGACGCTTGG	1.04
CATTTCTCTT	0.993
ACAGCGGGG	1.02
AAGAGCTCGA	0.965
TGGGAACGTT	1.03
CCAACAGCAT	3.72

Sequence	switch fluorescence ratio
AGCGAGGGCT	1.01
TGGGCGTAGG	1
GATGCACAGG	1.43
CACTTGTATC	1.02
CAGTTGGATA	0.99
GTGCAGGGGA	1.02
TTGAGATACC	1.04
TATAGTTGGG	1.01
TGAAATCATT	0.951
TTGGGATGCT	2.9
GGTCTTTAAT	0.971
AGGGCCTTTT	1.1
TGACATTTTT	0.967
GAGTGGTCCC	1.08
TGAGGTGACG	0.917
CCAGAAACGA	1.05
GCTTACGCAT	1.13
AGTCCCCCAA	1.63
GAGTAACTTC	0.937
CCACTTCGGT	0.999
TCTGAGCGTA	0.987
CGACTGGATT	1.02
TGTAATGCA	1.02
TCCTGTAACG	0.969
CAGTCCAC	1.01
CGTGATTGAT	0.995

Sequence	switch fluorescence ratio
TTGGCTGAGT	1
CCCTTGCCAT	1.02
AGGGTGATG	0.983
GGAATCTGCA	1.07
TCGATTGTTT	3.26
AATTGTGTAG	1.03
TTATGCGTCG	1
TCCAGTCACA	1.04
ACTACTTAGT	1.05
AATCATGACA	1.02
CATGCGGGTC	1.06
GGAACTAAGA	0.992
TCTAACGCAC	2.1
TTTCTGGCAC	1.04
CGGGGGCGTA	0.97
AAGGAGAGAT	1.05
GCAGTACCTT	1.2
CGTGGTGTCA	1.03
CTAGGGTCGA	1
TGGGAGGAT	1
CAGCTCGCAG	1.31
ATAGACAGCC	1.09
GATCCGCGAA	1.72
TGCCTAGGCT	0.957
CGTCTAGATG	1.04
TCGACATCTC	1.03

Sequence	switch fluorescence ratio
GGGCGGCTTC	1.04
TGGTTTATAA	1.01
CGCGCACCGT	1.06
TAAGTGCAGG	1.03
CTCGTCATCA	1.05
AGAGGAGGAC	0.923
ACAAGGTTTT	1.04
CAGGGTGCAG	0.908
TTCAACCATT	1.04
GGGATCCTAT	0.983
TAGGGGG	0.958
CGCCTGCTTA	1.01
GAGCACCACG	1.06
TAAAGGGCGC	0.971
TTCAAGACT	1.05
TGGAACATAC	1.34
ATTTTTCGCG	0.978
ATTGTTAG	1.01
CCCCTACACA	1.07
GATTGAGCGA	1.01
ACGCAGGACC	2.08
TTTTCTTCGT	0.983
CTTGATTGTT	1.03
GACTGGTGAG	0.953
AGAAATGCTT	0.964
GCACTCCAGC	1.04

Sequence	switch fluorescence ratio
CGTGGGCGGA	0.998
ATTTATCTAT	0.968
ATGAGCTGA	1.01
ACCCCGGCTG	1.34
TTTTCCAG	1
CCCGGTAACC	1.08
GCCTACCTAC	1.72
GGTGCTCGCT	1.01
TGAGATGGAG	1.02
TAGGGGTTG	0.978
GGAGGGC	0.912
TAAATGGGG	1
CTAGTGTGAA	1.02
AGGGCGTATA	0.985
TTAGATACAG	1.03
AACTAGTTT	0.969
GTTCGTAATA	1.44
TAGTAACCGG	1.01
TAATTCCGT	0.991
GGCTTCGAGC	0.995
TTCATTCACG	1.05
ATAAAAGCCT	1.02
ACCCGAGTTA	1.03
GAGCTTAGAC	1.06
